From patent publication US6204276A, “Dicarboxylic germanium complex and its therapeutic use” (Primamedic Ltd., priority 1996, dated 2001)

System: WSN strain of influenza A virus (H1N1)
Assay: Investigation of anti-influenza activity
Conditions: statement in words

O=C1[O][Ge]2([O]C(=O)c3cccc1n3)[O]C(=O)c1cccc(n1)C(=O)[O]2 [Compound I, germanium bis(pyridine-2,6-dicarboxylate)]
anti-influenza effect: high anti-influenza effect
